Series [1] concerns the molecule itself. The series can be described thus: cross-linking.
Series [2] concerns the molecule itself. The series can be described thus: cross-linking. This is another data set of the same source.
The series “native gel or EMSA” deals with the molecule itself. The series can be described thus: native gel or EMSA.

B1: polymorphic S326C OGG1 (enzyme)
chain: not shown
Consider B1, for which the “stoichiometry N” value in the series “cross-linking [1]” was found to be 2.

B2: N-terminally FLAG-tagged S326C OGG1 expressed in HeLa cells (enzyme)
chain: not shown
As for B2, the “stoichiometry N” value in the series “cross-linking [2]” turned out to be 2.

B3: S326C CΔ19 OGG1 (domain or fragment)
chain: not shown
Take B3: in the series “native gel or EMSA”, the “stoichiometry N” value was 2.
